In all, about 45,000 compounds went through this assay and about 200 (0.44%) were called active. Roughly 7% stayed inconclusive and do not appear here. The call rests on the fitted dose curve; in most records, active means well fitted activation curve with a large enough effect; inconclusive means small, poorly fitted or top-dose-only effect; inactive means no such curve, though single readings can be large or run the other way. Some of the results follow.

This assay is described as follows: qHTS of TDP-43 Inhibitors: NCGC Sytravon Library Screen. Further: 0% is about no effect; nearly all actives have a fitted effect of over 55% in size. As to conditions: yeast TDP-43 toxicity rescue, BacTiter-Glo growth, 24 h; series mostly up to 46.1 µM; growth rescue (activation): at the top concentration. In outline: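 TDP-43-expressing yeast, pregrown in raffinose, seeded at OD600 0.02 in galactose medium with compound for 24 hr at 30 deg C. Growth read by BacTiter-Glo luminescence, so rescue of toxicity appears as activation.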
For orientation: qHTS replaces the single test concentration by a dilution series.
For `O=C(NCCc1ccccc1)C1CCCN1S(=O)(=O)c1ccccc1` (stereo not drawn), the “growth rescue (activation)” value is inactive: 14.1%.
On to `CC1=NOC(=O)/C1=C\c1ccc(-c2ccc(Br)cc2C(=O)O)o1`, for which the “growth rescue (activation)” value was inactive: 16.4%.
Consider `Cc1ccc(-n2cc(CNCCc3cscn3)c(-c3ccc(F)cc3)n2)cc1`, for which the “growth rescue (activation)” value was inactive: -19.6%.
As to `Cc1cc(C)c2nc(C)cc(N/N=C/c3ccc(O)cc3)c2c1`, the “growth rescue (activation)” value is inactive: 0.533%.
On to `O=C(c1ccc2ccccc2c1)C1CCCN(C(=O)CN2C(=O)CSC2=O)C1` (stereo not drawn), for which the “growth rescue (activation)” value was inactive: -6.63%.
With `NC(=O)c1nsc(C(=O)N(Cc2ccco2)C(C(=O)NCc2ccccc2)c2ccc(O)cc2)c1N` (stereo not drawn) the figure was inactive: 9.35%; with `COc1ccc(NC(=O)c2ccc(-c3ccc([N+](=O)[O-])cc3)o2)cc1`, inactive: 8.06%; with `CC(=O)c1cccc(N(C(=O)CS(=O)CC(=O)Nc2ccc(F)cc2)C(C(=O)NC2CCCCC2)c2ccc(C)o2)c1` (stereo not drawn), inactive: -9.28%.
Next, `COc1ccccc1-c1ccc(/C=C2/C=C(C)OC2=O)o1`: inactive: 11.5%.
`COc1cc2c(cc1OC)CN(C(=O)Nc1ccccc1)CC2`: the “growth rescue (activation)” value is inactive: 15.2%.
With `Cc1ccccc1OCC(O)CNC1CCC(NCC(O)COc2ccccc2C)CC1` (stereo not drawn), the “growth rescue (activation)” value was inactive: -7.34%.
With `COc1ccccc1Nc1ncnc2c1c(C)c(C)n2CCO` the figure was inactive: -1.48%; with `Cc1cccc(N2CCN(S(=O)(=O)c3c(C)nc4scc(C)n4c3=O)CC2)c1C`, inactive: -5.77%; with `Cc1nn(CCC#N)c(NC(=O)c2ccccc2)c1P(=O)(Nc1ccc(Br)cc1)N1CCOCC1` (stereo not drawn), inactive: 10.3%.
Next, `OC[C@@H]1CN(Cc2ccncc2)C[C@H](n2cnc3c(NC4CCCC4)ncnc32)O1`: inactive: 2.92%.
With `COc1cc(/C=N/N=C2/C(=O)Nc3ccccc32)ccc1O` the figure was inactive: -0.29%.
As to `CCCCn1c(=N)n(CCCOc2ccc(F)cc2)c2ccccc21`, the “growth rescue (activation)” value was inactive: 8.08%.
Turning to `Cc1cc(C)cc(C(O)c2ncc(-c3ccc4ccccc4c3)[nH]2)c1` (stereo not drawn), the “growth rescue (activation)” value is inactive: 1%.
With `CCOC(=O)C1(CC2CCCCO2)CCN(C(=O)Nc2ccc(SC)cc2)CC1` (stereo not drawn), the “growth rescue (activation)” value is inactive: 9.58%.
Consider `COc1ccccc1CNC(=O)N1CCN(S(=O)(=O)c2ccc(Cl)cc2)CC1`, for which the “growth rescue (activation)” value was inactive: 3.47%.
`O=C(Cn1nnc2ccccc2c1=O)Nc1cccc(S(=O)(=O)N2CCOCC2)c1`: the “growth rescue (activation)” value is inactive: 0.175%.
As for `COc1ccc(CCn2c(-c3ccc(F)cc3)nc3c(c(=O)c4ccccc4n3C)c2=O)cc1OC`, the “growth rescue (activation)” value was inactive: 0.267%.
Next, `COCCCNC(=S)N1CCN(C(=O)c2ccco2)CC1`: inactive: 22.6%.
With `CN(C(=O)Cn1nnc2ccccc2c1=O)C1CCCCC1` the figure was inactive: -33.9%; with `Cc1ccc(NC(=O)C2CCN(C(=O)c3ccco3)CC2)cc1C`, inactive: -9.67%.
With `COc1ccccc1-n1cnnc1SCC(=O)Nc1ccccc1` the figure was inactive: -9.66%.
As to `Cc1cc(OCC(=O)Nc2c(C)n(C)n(-c3ccccc3)c2=O)ccc1[N+](=O)[O-]`, the “growth rescue (activation)” value is inactive: 7.41%.
With `CCC(C)/C(C)=N/NC(=O)CSc1nc2ccccc2[nH]1` (stereo not drawn) the figure was inactive: -1.88%.
As to `CCC(=O)N1C(=O)CCN(C(C)=O)c2ccccc21`, the “growth rescue (activation)” value is inactive: -18.1%.
Next, `Cc1ccccc1C(=O)N1CCN(c2ccc(NC(=O)c3ccccc3[N+](=O)[O-])cc2)CC1`: inactive: 2.29%.
Regarding `COc1ccccc1NC(=O)CCCc1c[nH]c2ccccc12`, the “growth rescue (activation)” value was inactive: 27.8%.
`COc1ccc(/C=N\n2nnc3ccccc32)cc1`: the “growth rescue (activation)” value is inactive: 12.3%.
Take `Cc1ccc(NC(=O)c2ccc(C(C)(C)C)cc2)cc1[N+](=O)[O-]`: the “growth rescue (activation)” value is inactive: 6.16%.
With `COc1ccc(C(=O)Nc2ccc(N3CCC(C)CC3)cc2)cc1Br` the figure was inactive: 5.41%; with `O=C(NCc1ccccc1)C(c1cccnc1)N(C(=O)c1csnn1)c1ccccc1` (stereo not drawn), inactive: 7.49%; with `CCN(CC)S(=O)(=O)c1ccc(N/N=C(\C)c2ccncc2)c([N+](=O)[O-])c1`, inactive: 2.96%.
Next, `CCc1nc2c(OCC(=O)C(C)(C)C)cccn2c1N(C)C(=O)C1CC1`: inactive: -2.57%; `CC1(C(=O)NS(=O)(=O)c2ccc(F)cc2F)CCN1C(=O)CCc1ccccc1` (stereo not drawn): inactive: -0.502%.
Turning to `COc1ccc(/C=C/C(=O)NC2CCN(Cc3ccccc3)CC2)cc1OC`, the “growth rescue (activation)” value is inactive: 5.14%.
For the molecule `C/C(=N\Nc1nc2ccc(Cl)cc2o1)c1ccccc1`, the “growth rescue (activation)” value is inactive: 15.2%.
In the case of `Cn1cccc1Cc1nnc(SCC(=O)NCCc2ccccc2)n1C`, the “growth rescue (activation)” value was inactive: 13.8%.
Regarding `Cc1oc2c(c(C)cc3oc(=O)c(CC(=O)NCCC(=O)O)c(C)c32)c1C`, the “growth rescue (activation)” value was inactive: -17.4%.
With `O=C(Nc1ccc(O)c(-c2nc3ccccc3o2)c1)C1(c2ccc(Cl)cc2)CCCC1` the figure was inactive: 12%; with `CCc1sc(NC(=O)CCC(=O)O)nc1-c1cc2ccccc2oc1=O`, inactive: 7.19%.
As to `COc1ccc(-n2nc(C(=O)NCC(=O)N(C)Cc3ccccc3)c3ccccc3c2=O)cc1OC`, the “growth rescue (activation)” value is inactive: 27.4%.
With `O=C(Cc1ccccc1F)Nc1cccc(S(=O)(=O)N2CCOCC2)c1` the figure was inactive: -0.45%; with `CCNC(=S)Nc1ccc(S(=O)(=O)Nc2cc(C)nc(C)n2)cc1`, inactive: 4.89%; with `CCOc1ccc(S(=O)(=O)N2CCN(C(=O)c3cccnc3)CC2)cc1`, inactive: 15%.
For `NC(=O)c1cc(S(=O)(=O)N2CCCC2)ccc1OCCOc1ccccc1F`, the “growth rescue (activation)” value was inactive: -1.26%.
Regarding `CCOC(=O)C1=C(C)N=c2s/c(=C\c3ccc(O)c([N+](=O)[O-])c3)c(=O)n2C1c1ccccc1OC` (stereo not drawn), the “growth rescue (activation)” value is inactive: -3.45%.
As for `CCOc1ccc2cc(S(=O)(=O)n3ccnc3C)ccc2c1`, the “growth rescue (activation)” value was inactive: 4.2%.
Next, `COc1ccc(N(CC(=O)NCc2ccco2)C(=O)CCC(=O)Nc2nccs2)c(OC)c1`: inactive: -11.8%; `COc1ccc(-c2csc(/C=C/c3ccc4c(c3)OCO4)n2)cc1OC`: inactive: -12.7%.

Values taken from PubChem BioAssay AID1347073 (National Center for Advancing Translational Sciences (NCATS), 2019).
